We go through 24 compounds from PubChem BioAssay AID463173 (ICCB-Longwood Screening Facility, Harvard Medical School, 2010).

The whole screen tested about 52,000 compounds, of which about 1,700 (3.3%) were called active. No stated cut-off is given here; in the data, active means survival mostly below about 52% (no sharp cut-off); inactive means mostly above about 56%. The list shows a part of the results.

This test concerns Wild type. Put plainly: growth inhibition of S. aureus wild type versus tarO mutant, primary screen, teichoic acid synthesis inhibitors, RN4220, OD600 (AID 463173). The conditions noted are these: S. aureus RN4220 wild type/DeltatarO growth, OD600, 18 h, stronger effect = lower value, screened at 18.75 µg/mL (by protocol).
As for `Cc1cccc2c(=O)cc(CSc3ccccc3NC(=O)c3cccc(Br)c3)[nH]c12`, the survival was inactive: 91%.

Turning to `CCc1ccc(S(=O)(=O)Nc2cccc(-c3ccc(OC)nn3)c2)s1`, the survival was inactive: 71%.

For the compound `Cc1ccc(S(=O)(=O)NC(CO)C(=O)O)cc1` (centres undefined), the survival is inactive: 94%.

On to `CCOc1ccccc1NC(=O)NCc1noc2ccc(C)cc12`, for which the survival is inactive: 76%.

`COc1cccc(NC(=O)c2sc3nc(C)c(C(=O)Nc4ccc(C)cc4C)c(-c4ccc(C)o4)c3c2N)c1`: the survival was inactive: 66%.

For the compound `CCC1CCCCN1CCCNC(=O)c1c(C)oc2ncn(CC(C)C)c(=O)c12` (centres undefined), the survival was inactive: 67%.

Take `O=C(O)c1ccc(NS(=O)(=O)c2ccc(N3C(=O)CCC3=O)cc2)cc1`: the survival is inactive: 101%.

Take `O=c1n(Cc2ccc(Cl)cc2)nc2n1-c1ccccc1OC2`: the survival was inactive: 73%.

As for `Cc1ccc(N2CC(C(=O)NCc3nnnn3-c3ccc(C)c(C)c3)CC2=O)cc1C` (centres undefined), the survival was inactive: 59%.

Regarding `COc1cc(C(=O)NCC(c2ccc3c(c2)OCO3)N2CCN(C)CC2)cc(OC)c1OC` (centres undefined), the survival was inactive: 128%.

In the case of `COc1cccc2c1cc1c(=O)n(CC(=O)NCc3ccc(N(C)C)cc3)nc(C)n12`, the survival was inactive: 83%.

Turning to `CC(C)c1ccc2oc(-c3cc(NC(=O)c4cccnc4)ccc3Cl)nc2c1`, the survival is active: 1%.

Turning to `O=C(CSc1nc2ccccc2nc1Cc1ccc(Cl)cc1)N1CCN(c2ccccc2F)CC1`, the survival is inactive: 83%.

`Cc1ccccc1OCC(=O)Nc1ccc2nc(SCCOc3ccccc3)sc2c1`: the survival is inactive: 115%.

Turning to `CC(C)c1c(O)nc(SCCC(=O)O)[nH]c1=O`, the survival was inactive: 96%.

On to `CN(C(=O)CSc1nc2ccc(NC(=O)CCc3ccccc3)cc2s1)c1ccccc1`, for which the survival is inactive: 86%.

As to `CN(C)S(=O)(=O)c1ccc(NC(=O)Cn2c(-c3ccccc3)noc2=O)cc1`, the survival is inactive: 115%.

For `CCOc1ccc(-c2cc(C(=O)N3CCN(c4cccc(C)c4)C(C)C3)c3ccccc3n2)cc1` (centres undefined), the survival was inactive: 113%.

For the compound `CCc1ccccc1NC(=O)C(=O)NCC(c1cccnc1)N1CCc2ccccc21` (centres undefined), the survival is inactive: 79%.

With `Cc1ccc(-c2nnc(Nc3ccc(S(N)(=O)=O)cc3)c3ccccc23)cc1S(=O)(=O)N1CCOCC1`, the survival is inactive: 69%.

Consider `Cc1ccc(C)c(Cn2c(SCC(=O)N(C)Cc3ccccc3)nc3ccccc32)c1`, for which the survival was inactive: 71%.

In the case of `Cc1ccc(C)c(N2CCN(C(=O)CCCCCn3c(=O)[nH]c4ccccc4c3=O)CC2)c1`, the survival is inactive: 71%.

On to `COc1ccc2c(c1)Cc1sc(NC(=O)c3cccc(F)c3)nc1-2`, for which the survival is inactive: 69%.

For the compound `CC(NC(=O)c1cccc(NC(=O)c2nsc3ccccc23)c1)c1ccccc1` (centres undefined), the survival is inactive: 111%.
